# Assay results: the supplement of paper PMC8728848
# Some of the results follow.
# B1: PX9961J-bvu-499-24-499 (Bacteroides vulgatus) (protein)
# chain: LNTDPSTAVPSDDAIKNIDDAQVALNGIYRLASAHSYYGDNYLYYADCRGEDVQARINKGAGRRVSPYYFFDVTADDNFNITLVWNQPYKVIHQANSLIEKLDAGNAGNARPEEVARIKSEALAMRGLALFDLTRLFGMPYTLDNGASLGVPIEIQTTLEDHAPERNTVAQCYEQVLKDLNDALGGLTKEKHDAYMNYWSVKALLSRVYLYMNDNENALKCAEEVINDNGGIYRLFTHDEYPSVWGKDFNSESLFEFYFTMSEPSGGSGGEGAPMVYADNVKDWNNLILTKAYLDLLNEDPEDVRHVFPHLPENAVADTLPVAAKGQPKYLIKYPGKSGSVTDAVSTVNPQDNDLCILRLSEVYLNAAEAAFKIGNTEKALTYLNAIVTRANPAKSVTSADLSLERILKERRKELVGEGHAFFDYMRNGKSVDRSGGWHLTMPEDARVIAPSDPRVALPIPQTEIDANPNIVQNPR
# What was measured:
# Test in all cases: glycan array binding signal (z-score within array); higher = stronger binding
# Settings in all cases: glycan notation: IUPAC condensed, linker removed
# Neu5Ac(a2-8)Neu5Ac = target: Neu5Ac(a2-8)Neu5Ac
# In short: (§1)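 Negative Z-scores can be read as non-binding. The Z-score is calculated within each array and then averaged across arrays of one protein sequence at different concentrations or buffers and across linkers. Arrays, 3228 in all, were curated from the Consortium for Functional Glycomics database and kept only where the protein sequence was available.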
# [1] = target: Neu5Ac(a2-8)Neu5Ac(a2-3)Gal(b1-3)GalNAc(b1-4)[Neu5Ac(a2-3)]Gal(b1-4)Glc
# In short: as §1
# [2] = target: Neu5Ac(a2-8)Neu5Ac(a2-3)Gal(b1-3)GalNAc(b1-4)[Neu5Ac(a2-8)Neu5Ac(a2-3)]Gal(b1-4)Glc
# In short: as §1
# [3] = target: Neu5Ac(a2-8)Neu5Ac(a2-3)Gal(b1-4)Glc
# In short: as §1
# [4] = target: Neu5Ac(a2-8)Neu5Ac(a2-3)Gal(b1-4)GlcNAc
# In short: as §1
# [5] = target: Neu5Ac(a2-8)Neu5Ac(a2-3)[Gal(b1-3)GalNAc(b1-4)]Gal(b1-4)Glc
# In short: as §1
# [6] = target: Neu5Ac(a2-8)Neu5Ac(a2-3)[GalNAc(b1-4)]Gal(b1-4)Glc
# In short: as §1
# [7] = target: Neu5Ac(a2-8)Neu5Ac(a2-8)Neu5Ac
# In short: as §1
# [8] = target: Neu5Ac(a2-8)Neu5Ac(a2-8)Neu5Ac(a2-3)Gal(b1-4)Glc
# In short: as §1
# [9] = target: Neu5Ac(a2-8)Neu5Ac(a2-8)Neu5Ac(a2-3)[Gal(b1-3)GalNAc(b1-4)]Gal(b1-4)Glc
# In short: as §1
# [10] = target: Neu5Ac(a2-8)Neu5Ac(a2-8)Neu5Ac(a2-3)[GalNAc(b1-4)]Gal(b1-4)Glc
# In short: as §1
# [11] = target: Neu5Ac(a2-8)Neu5Ac(a2-8)Neu5Ac(a2-8)Neu5Ac(a2-3)[GalNAc(b1-4)]Gal(b1-4)Glc
# In short: as §1
# [12] = target: Neu5Ac(a2-8)Neu5Gc(a2-3)Gal(b1-4)GlcNAc
# In short: as §1
# [13] = target: Neu5Ac(b2-6)Gal(b1-4)GlcNAc
# In short: as §1
# Neu5Ac(b2-6)GalNAc = target: Neu5Ac(b2-6)GalNAc
# In short: as §1
# [14] = target: Neu5Ac9Ac(a2-3)Gal(b1-3)GlcNAc
# In short: as §1
# [15] = target: Neu5Ac9Ac(a2-3)Gal(b1-4)GlcNAc
# In short: as §1
# [16] = target: Neu5Ac9Ac(a2-6)Gal(b1-4)GlcNAc
# In short: as §1
# [17] = target: Neu5Gc(a2-3)Gal(b1-3)GlcNAc
# In short: as §1
# [18] = target: Neu5Gc(a2-3)Gal(b1-3)[Fuc(a1-4)]GlcNAc
# In short: as §1
# Neu5Gc(a2-3)Gal(b1-4)Glc = target: Neu5Gc(a2-3)Gal(b1-4)Glc
# In short: as §1
# [19] = target: Neu5Gc(a2-3)Gal(b1-4)GlcNAc
# In short: as §1
# [20] = target: Neu5Gc(a2-3)Gal(b1-4)GlcNAc(b1-3)Gal(b1-4)GlcNAc(b1-2)Man(a1-3)[Neu5Gc(a2-3)Gal(b1-4)GlcNAc(b1-3)Gal(b1-4)GlcNAc(b1-2)Man(a1-6)]Man(b1-4)GlcNAc(b1-4)GlcNAc
# In short: as §1
# [21] = target: Neu5Gc(a2-3)Gal(b1-4)[Fuc(a1-3)]GlcNAc
# In short: as §1
# [22] = target: Neu5Gc(a2-6)Gal(b1-4)GlcNAc
# In short: as §1
# Neu5Gc(a2-6)GalNAc = target: Neu5Gc(a2-6)GalNAc
# In short: as §1
# [23] = target: Neu5Gc(a2-8)Neu5Ac(a2-3)Gal(b1-4)GlcNAc
# In short: as §1
# [24] = target: Neu5Gc(a2-8)Neu5Gc(a2-3)Gal(b1-4)GlcNAc
# In short: as §1
# [25] = target: Neu5Gc(a2-8)Neu5Gc(a2-3)Gal(b1-4)GlcNAc(b1-3)Gal(b1-4)GlcNAc
# In short: as §1
# [26] = target: Neu5Gc(a2-8)Neu5Gc(a2-6)Gal(b1-4)GlcNAc
# In short: as §1
# [27] = target: Neu5Gc(b2-6)Gal(b1-4)GlcNAc
# In short: as §1
binder,measurement,setting,value
B1,glycan array binding signal (z-score),Neu5Ac(a2-8)Neu5Ac,-0.25
same,glycan array binding signal (z-score),[1],0.578
same,glycan array binding signal (z-score),[2],-0.432
same,glycan array binding signal (z-score),[3],-0.744
same,glycan array binding signal (z-score),[4],-0.334
same,glycan array binding signal (z-score),[5],0.123
same,glycan array binding signal (z-score),[6],-0.134
same,glycan array binding signal (z-score),[7],-0.377
same,glycan array binding signal (z-score),[8],-0.046
same,glycan array binding signal (z-score),[9],0.142
same,glycan array binding signal (z-score),[10],-0.474
same,glycan array binding signal (z-score),[11],0.365
same,glycan array binding signal (z-score),[12],19
same,glycan array binding signal (z-score),[13],-0.261
same,glycan array binding signal (z-score),Neu5Ac(b2-6)GalNAc,0.53
same,glycan array binding signal (z-score),[14],-0.873
same,glycan array binding signal (z-score),[15],-0.319
same,glycan array binding signal (z-score),[16],-0.521
same,glycan array binding signal (z-score),[17],-0.438
same,glycan array binding signal (z-score),[18],-0.155
same,glycan array binding signal (z-score),Neu5Gc(a2-3)Gal(b1-4)Glc,-0.005
same,glycan array binding signal (z-score),[19],0.173
same,glycan array binding signal (z-score),[20],1.22
same,glycan array binding signal (z-score),[21],-0.163
same,glycan array binding signal (z-score),[22],0.325
same,glycan array binding signal (z-score),Neu5Gc(a2-6)GalNAc,-0.455
same,glycan array binding signal (z-score),[23],-0.553
same,glycan array binding signal (z-score),[24],-0.572
same,glycan array binding signal (z-score),[25],0.077
same,glycan array binding signal (z-score),[26],-0.005
same,glycan array binding signal (z-score),[27],0.577
